According to PubChem BioAssay AID2101 (National Center for Advancing Translational Sciences (NCATS), 2009):
In all, about 330,000 compounds went through this assay and about 300 (0.091%) were called active. Inconclusive results, whose numbers are uncertain, are shown with a selection of clear calls. Calls come from the whole dose curve; as a rule, active = well fitted inhibition curve with a large enough effect; inconclusive = small, poorly fitted or top-dose-only effect, or effect the other way, or another doubt; inactive = no such curve, though single readings can be large or run the other way. No potency is given beside an inconclusive call; the fits are too rough.

What follows are molecules tested against Lysosomal acid glucosylceramidase (Homo sapiens) (UniProt P04062) (assay: qHTS Assay for Inhibitors and Activators of N370S glucocerebrosidase as a Potential Chaperone Treatment of Gaucher Disease). Conditions: N370S GC spleen homogenate, 4MU-glucoside fluorescence; activity change, negative = inhibition: at 59.4 µM (top of the series) unless noted.
Potency is the fitted concentration of half-maximal effect.
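Throughout, for activity change, negative = inhibition: 0% = full enzyme activity and -100% = no enzyme basal.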

**Q.** Which Potency does the source give for CCN(CC)Cc1c(O)ccc2c(=O)c(-c3ccccc3Cl)coc12 here?
**A.** Its Potency is inconclusive [activator, single point].

**Q.** With COc1cccc(N2CC(C(=O)N3CCC4(CC3)CC(=O)c3ccccc3O4)CC2=O)c1 (centres undefined) as the molecule, how does the Potency read?
**A.** The Potency was inconclusive [inhibitor, single point].

**Q.** CC(=O)OC1c2c(ccc3ccc(=O)oc23)OC(C)(C)C1OC(=O)CC(C)C (centres undefined) was tested. Which Potency did it give?
**A.** The Potency was inconclusive [activator, single point].

**Q.** How did the Potency turn out when CCCn1c(SCC(=O)Nc2ccccc2N2CCCCC2)nc2c1c(=O)n(C)c(=O)n2C was run?
**A.** The Potency was inconclusive [activator, partial curve].

**Q.** With Cc1ccc2nsnc2c1S(=O)(=O)N(Cc1ccco1)Cc1cc2ccc(C)c(C)c2[nH]c1=O as the molecule, how does the Potency read?
**A.** The Potency was inconclusive [activator, full curve, poor fit].

**Q.** With O=[N+]([O-])c1ccc(OCCCOc2cccc3cccnc23)cc1 as the molecule, how does the Potency read?
**A.** Its Potency is “inactive”.

**Q.** For CCS(=O)(=O)c1ccc2oc(Nc3ccccc3C)nc2c1, which Potency is on record?
**A.** Its Potency is inconclusive [inhibitor, single point].

**Q.** CCc1c(C)c(C#N)c2nc3ccccc3n2c1NCCOC was tested. Which Potency did it give?
**A.** The Potency was inconclusive [activator, partial curve].

**Q.** Which Potency does the source give for CC(=O)Cn1cnc2c(cnn2-c2ccc(C)c(C)c2)c1=O here?
**A.** Its Potency is “inactive”.

**Q.** For COC(=O)c1ccc(C)c(-n2c(C)cc(C=O)c2C)c1, which activity change, negative = inhibition is on record?
**A.** Its activity change, negative = inhibition is inconclusive: 32.6% [activator].

**Q.** How did the Potency turn out when CCOc1ccc(CN=C(N)N=C(N)N)cc1Cl was run?
**A.** Its Potency is inconclusive [inhibitor, full curve, poor fit].

**Q.** For O=C(CO/N=C/c1ccccc1OC(F)F)NCc1cccs1, which Potency is on record?
**A.** The Potency was inconclusive [inhibitor, partial curve].

**Q.** With CC1CCC(NC(=O)c2cc3c(s2)CCCC3)CC1 (centres undefined) as the molecule, how does the Potency read?
**A.** Its Potency is inconclusive [activator, partial curve].

**Q.** How did the Potency turn out when O=C(N/N=C/c1cccnc1)c1ccc(CN2c3cccc4cccc(c34)S2(=O)=O)cc1 was run?
**A.** The Potency was inconclusive [inhibitor, partial curve].

**Q.** With CC[n+]1c(/C=C2/C=C(C)CC(C)C2)sc2ccccc21 (centres undefined) as the molecule, how does the Potency read?
**A.** The Potency was inconclusive [inhibitor, single point].

**Q.** With O=C(Nc1ccc(Cl)cc1)Nc1ccccc1C(=O)O as the molecule, how does the Potency read?
**A.** The Potency was “inactive”.

**Q.** Which Potency does the source give for COc1ccc(-c2cc(-c3ccccc3)nc(N3CCCC3)n2)cc1OC here?
**A.** The Potency was inconclusive [activator, partial curve].

**Q.** For Cc1ccc(/C=C(\C#N)c2nn(-c3ccccc3)c(N)c2C#N)cc1, which activity change, negative = inhibition is on record?
**A.** The activity change, negative = inhibition was inconclusive: 28.8% [activator].

**Q.** With N#CC1=C2SCN(Cc3ccco3)CN2C(=O)CC1c1cccc2ccccc12 (centres undefined) as the molecule, how does the Potency read?
**A.** The Potency was inconclusive [inhibitor, single point].
